In US20240076343A1:
Values belong to the binder of their own block, whether it stands above or below them.

Tests used:
Assay in all cases: cell-based or functional assay
[1] = target: intermediate affinity hIL-2 receptor complex (IL-2Rβγ) (human) (UniProt P14784)
[2] = target: high-affinity hIL-2 receptor (IL-2Rαβγ) on NK-92 cells (human) (UniProt P01589)
[3] = target: high-affinity hIL-2 receptor (IL-2Rαβγ) (human) (UniProt P01589)
[4] = target: intermediate affinity hIL-2 receptor complex (IL-2Rβγ) on TF1+IL-2Rβ cells (human) (UniProt P14784)

- Fold change from rhIL-2 (TF1 + IL-2Rβ), pSTAT5 titration [1]: 343 fold
- Fold change from hIL-2 (NK-92) [2]: 10 fold
- Fold change from rhIL-2 (NK-92), pSTAT5 titration [3]: > 10000 fold
- Fold change from hIL-2 (TF1 + IL-2Rβ) [4]: 4 fold
B1: 1H3-hIgG1-L6-hIL-2 (D20Y/H16Y) (protein)
heavy: EVQLVESGGGLVQPGRSLKLSCAVSGFTFSDYAMAWVRQAPKKGLEWVATISYDGSRTYYRDSVKGRFTISRDNAKITLYLQMDSLRSEDTATYYCARHGSGYFDYWGQGVMVTVSS[not shown - about 450 residues with a human IgG1 Fc and changes]
light: DTVLTQSPALAVSPGERVTISCRASESVRTGVHWYQQKPGQQPKLLIYGASNLESGVPARFSGSGSGTDFTLTIDPVEADDTATYFCQQSWNDPFTFGSGTKLEIKRTVAAPSVFIFPPSDEQLKSGTASVVCLLNNFYPREAKVQWKVDNALQSGNSQESVTEQDSKDSTYSLSSTLTLSKADYEKHKVYACEVTHQGLSSPVTKSFNRGEC

- Fold change from rhIL-2 (TF1 + IL-2Rβ), pSTAT5 titration [1]: 117 fold
- Fold change from hIL-2 (NK-92) [2]: 7 fold
- Fold change from rhIL-2 (NK-92), pSTAT5 titration [3]: 21 fold
- Fold change from hIL-2 (TF1 + IL-2Rβ) [4]: 2 fold
B2: 1H3-hIgG1-L6-hIL-2 (D20A) (protein)
heavy: EVQLVESGGGLVQPGRSLKLSCAVSGFTFSDYAMAWVRQAPKKGLEWVATISYDGSRTYYRDSVKGRFTISRDNAKITLYLQMDSLRSEDTATYYCARHGSGYFDYWGQGVMVTVSS[not shown - about 450 residues with a human IgG1 Fc and changes]
light: B1 light

- Agonistic Activity (TF1 + IL-2Rβ), pSTAT5 titration [1]: 60%
- Fold change from rhIL-2 (TF1 + IL-2Rβ), pSTAT5 titration [1]: 107 fold
- Fold change from hIL-2 (NK-92) [2]: 11 fold
- Agonistic Activity (NK-92), pSTAT5 titration [3]: 70%
- Fold change from rhIL-2 (NK-92), pSTAT5 titration [3]: 658 fold
- Fold change from hIL-2 (TF1 + IL-2Rβ) [4]: 3 fold
B3: 1H3-hIgG1-L6-hIL-2 (R38I/D20A) (protein)
heavy: EVQLVESGGGLVQPGRSLKLSCAVSGFTFSDYAMAWVRQAPKKGLEWVATISYDGSRTYYRDSVKGRFTISRDNAKITLYLQMDSLRSEDTATYYCARHGSGYFDYWGQGVMVTVSS[not shown - about 450 residues with a human IgG1 Fc and changes]
light: B1 light

- Agonistic Activity (TF1 + IL-2Rβ), pSTAT5 titration [1]: 90%
- Fold change from rhIL-2 (TF1 + IL-2Rβ), pSTAT5 titration [1]: 85 fold
- Fold change from hIL-2 (NK-92) [2]: 11 fold
- Agonistic Activity (NK-92), pSTAT5 titration [3]: 90%
- Fold change from rhIL-2 (NK-92), pSTAT5 titration [3]: 786 fold
- Fold change from hIL-2 (TF1 + IL-2Rβ) [4]: 3 fold
B4: 1H3-hIgG1-L6-hIL-2 (R38M/D20A) (protein)
heavy: EVQLVESGGGLVQPGRSLKLSCAVSGFTFSDYAMAWVRQAPKKGLEWVATISYDGSRTYYRDSVKGRFTISRDNAKITLYLQMDSLRSEDTATYYCARHGSGYFDYWGQGVMVTVSS[not shown - about 450 residues with a human IgG1 Fc and changes]
light: B1 light

- Fold change from hIL-2 (NK-92) [2]: 13 fold
- Fold change from hIL-2 (TF1 + IL-2Rβ) [4]: 1 fold
B5: 1H3-hIgG1-L6-hIL-2 (R38E/Q22A/S130A) (protein)
heavy: EVQLVESGGGLVQPGRSLKLSCAVSGFTFSDYAMAWVRQAPKKGLEWVATISYDGSRTYYRDSVKGRFTISRDNAKITLYLQMDSLRSEDTATYYCARHGSGYFDYWGQGVMVTVSS[not shown - human IgG1 constant region]SGGGGSAPTSSSTKKTQLQLEHLLLDLAMILNGINNYKNPKLTEMLTFKFYMPKKATELKHLQCLEEELKPLEEVLNLAQSKNFHLRPRDLISNINVIVLELKGSETTFMCEYADETATIVEFLNRWITFCQSIIATLT
light: B1 light

- Agonistic Activity (TF1 + IL-2Rβ), pSTAT5 titration [1]: 90%
- Fold change from rhIL-2 (TF1 + IL-2Rβ), pSTAT5 titration [1]: 48 fold
- Fold change from hIL-2 (NK-92) [2]: 14 fold
- Fold change from rhIL-2 (NK-92), pSTAT5 titration [3]: 561 fold
- Fold change from hIL-2 (TF1 + IL-2Rβ) [4]: 2 fold
B6: 1H3-hIgG1-L6-hIL-2 (R38Q/I92D) (protein)
heavy: EVQLVESGGGLVQPGRSLKLSCAVSGFTFSDYAMAWVRQAPKKGLEWVATISYDGSRTYYRDSVKGRFTISRDNAKITLYLQMDSLRSEDTATYYCARHGSGYFDYWGQGVMVTVSS[not shown - about 450 residues with a human IgG1 Fc and changes]
light: B1 light

- Agonistic Activity (TF1 + IL-2Rβ), pSTAT5 titration [1]: 70%
- Fold change from rhIL-2 (TF1 + IL-2Rβ), pSTAT5 titration [1]: 107 fold
- Fold change from hIL-2 (NK-92) [2]: 12 fold
- Agonistic Activity (NK-92), pSTAT5 titration [3]: 80%
- Fold change from rhIL-2 (NK-92), pSTAT5 titration [3]: 1750 fold
- Fold change from hIL-2 (TF1 + IL-2Rβ) [4]: 3 fold
B7: 1H3-hIgG1-L6-hIL-2 (R38H/D20A) (protein)
heavy: EVQLVESGGGLVQPGRSLKLSCAVSGFTFSDYAMAWVRQAPKKGLEWVATISYDGSRTYYRDSVKGRFTISRDNAKITLYLQMDSLRSEDTATYYCARHGSGYFDYWGQGVMVTVSS[not shown - about 450 residues with a human IgG1 Fc and changes]
light: B1 light

- Fold change from hIL-2 (NK-92) [2]: 14 fold
- Fold change from hIL-2 (TF1 + IL-2Rβ) [4]: 1 fold
B8: 1H3-hIgG1-L6-hIL-2 (R38E/Q126V) (protein)
heavy: EVQLVESGGGLVQPGRSLKLSCAVSGFTFSDYAMAWVRQAPKKGLEWVATISYDGSRTYYRDSVKGRFTISRDNAKITLYLQMDSLRSEDTATYYCARHGSGYFDYWGQGVMVTVSS[not shown - about 450 residues with a human IgG1 Fc and changes]
light: B1 light

- Agonistic Activity (TF1 + IL-2Rβ), pSTAT5 titration [1]: 70%
- Fold change from rhIL-2 (TF1 + IL-2Rβ), pSTAT5 titration [1]: 231 fold
- Fold change from hIL-2 (NK-92) [2]: 13 fold
- Agonistic Activity (NK-92), pSTAT5 titration [3]: 90%
- Fold change from rhIL-2 (NK-92), pSTAT5 titration [3]: 584 fold
- Fold change from hIL-2 (TF1 + IL-2Rβ) [4]: 2 fold
B9: 1H3-hIgG1-L6-hIL-2 (K43E/D20A) (protein)
heavy: EVQLVESGGGLVQPGRSLKLSCAVSGFTFSDYAMAWVRQAPKKGLEWVATISYDGSRTYYRDSVKGRFTISRDNAKITLYLQMDSLRSEDTATYYCARHGSGYFDYWGQGVMVTVSS[not shown - about 450 residues with a human IgG1 Fc and changes]
light: B1 light

- Fold change from rhIL-2 (TF1 + IL-2Rβ), pSTAT5 titration [1]: 167 fold
- Fold change from hIL-2 (NK-92) [2]: 3 fold
- Fold change from rhIL-2 (NK-92), pSTAT5 titration [3]: 8 fold
- Fold change from hIL-2 (TF1 + IL-2Rβ) [4]: 2 fold
B10: 1H3-hIgG1-L6-hIL-2 (D20T) (protein)
heavy: EVQLVESGGGLVQPGRSLKLSCAVSGFTFSDYAMAWVRQAPKKGLEWVATISYDGSRTYYRDSVKGRFTISRDNAKITLYLQMDSLRSEDTATYYCARHGSGYFDYWGQGVMVTVSS[not shown - about 450 residues with a human IgG1 Fc and changes]
light: B1 light

- Fold change from rhIL-2 (TF1 + IL-2Rβ), pSTAT5 titration [1]: 4 fold
- Fold change from hIL-2 (NK-92) [2]: 11 fold
- Fold change from rhIL-2 (NK-92), pSTAT5 titration [3]: > 10000 fold
- Fold change from hIL-2 (TF1 + IL-2Rβ) [4]: 4 fold
B11: 1H3-hIgG1-L6-hIL-2 (D20Y/I92A) (protein)
heavy: EVQLVESGGGLVQPGRSLKLSCAVSGFTFSDYAMAWVRQAPKKGLEWVATISYDGSRTYYRDSVKGRFTISRDNAKITLYLQMDSLRSEDTATYYCARHGSGYFDYWGQGVMVTVSS[not shown - about 450 residues with a human IgG1 Fc and changes]
light: B1 light

- Agonistic Activity (TF1 + IL-2Rβ), pSTAT5 titration [1]: 40%
- Fold change from rhIL-2 (TF1 + IL-2Rβ), pSTAT5 titration [1]: > 10000 fold
- Fold change from hIL-2 (NK-92) [2]: 15 fold
- Agonistic Activity (NK-92), pSTAT5 titration [3]: 60%
- Fold change from rhIL-2 (NK-92), pSTAT5 titration [3]: > 10000 fold
- Fold change from hIL-2 (TF1 + IL-2Rβ) [4]: 4 fold
B12: 1H3-hIgG1-L6-hIL-2 (R38E/Q126D) (protein)
heavy: EVQLVESGGGLVQPGRSLKLSCAVSGFTFSDYAMAWVRQAPKKGLEWVATISYDGSRTYYRDSVKGRFTISRDNAKITLYLQMDSLRSEDTATYYCARHGSGYFDYWGQGVMVTVSS[not shown - about 450 residues with a human IgG1 Fc and changes]
light: B1 light
